Variants at the floor of the assay are shown more often than the library holds them.
B1: TPR 5TU (parent)
chain: GGAUCUUCUCGAUCUAACAAAAAAGACAAAUCUGCCACAAAGCUUGAGAGCAUCUUCGGAUGCAGAGGCGGCAGCCUUCGGUGGCGCGAUAGCGCCAACGUUCUCAACUAUGACACGCAAAACGCGUGCUCCGUUGAAUGGAGUUUAUCAUG

Variants of: B1
Assay: polymerase ribozyme fitness, log enrichment relative to wild type (log ratio); higher = more active; in vitro selection for triplet polymerase activity
Summary of the method: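 Fitness measures genotype enrichment against wild-type enrichment on a logarithmic scale, with inverse-variance-weighted averaging of replicates. The logarithm is base 2, and genotypes were kept only with ≥10 input reads and ≥1 read per output in Illumina sequencing. The sequenced libraries came from one triplicate in vitro selection round, including frozen incubation at −7 °C, of PCR-built, transcribed mutant libraries of each subunit of a heterodimeric triplet polymerase ribozyme.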

Polymerase ribozyme fitness (log ratio), ≤ -4.2:
G25U A39U U44C C79U C87G
C27G G84U C114U C125G G143A
G25U A89G C93A C99G C123A G133C
A24U C32U C54G A91G A107U A120G A142C
G25A A30G G92A C103A
C27G U45A G88A G92C A98G
A26C G59A C87G G124U
A28C G81C C87U G126U G143U
G25U U77C C79A U146C
C27A A37G G71C U134C U146A
C27A U45A C51A C87U C95G U144C
A26G A49U U55A U61A C75U
A28C G48A G50U C87U A113U U134G A142U U144A
C27A A91U U151A
A26U A41C G50C C57G A66C C96G U130C
G25A A28G G59U C72U C85A C93U C96U A110C C116A U148A C149U
A24U A137U
A24U G34A A52C C76A A121U
C27U C43U G48U A89G G136C
G25U U31C C43A G46A C96G
A26C C32U U53A U55C G84U A91U U104C
A24U C38G U45A G74A C93A G100C G126A U145A
G25C A60G G68C C96A
A28C A47U U56A C76G U78A C95U G133U
A26G C32U U78G C85U G133A
A26C C85G A89G
A28C A29U C85U G126U
C27U U45C U61C G83U C116A C125U
A26U U78G A89C C116U U146C
A26C A91C A110G
A26C C38A A49C C79U C93U
A24U U90G G143C G152A
A26G A40U G48U C87A U139A
G25A A26C A30U G59U A91C
G25U C99U C105A G128A A150G
A26G C114U A142G A150G
A24U A49U C87A A91C U139A G143U
C27U G46A G62C C129G
C27A A49C A60U C75A U102A
G25U A29C G50C C51A A52U U55A U78A C85U
C27A A29G G48U G59U C76A C132A
C27U C32G A40G C131U U135A
C27A U45A A49U G65C C87G G94A C105U C131A
C27A C75G C99U A137G
A26U A49C C87G C99G C103G U135G
A26G A137G G143C
A26U A29C C96A C116U A122C
A26C C32G A39U U78C G140U
C27G G46U U55A G81U G128U A137G
C27G A40C U61C C79U C93U G152A
C27U A60U G62C G92C C99G G133A U135C
A26C U31G G42A U61G G71A G84A A97U G100A C118A U148A
C27U U55A A66G C69G G92A A98G G128U
C27U A39U G42A G70U G92U U101G
G25A A28U G48U C51A U56C A64G G84U C116U
A26G A41C U56A G65A A73G
C27U A41U G42A A47U C72A C96G
C27U C54U A60G C72G A91G
A24U U78C A89G C96U G100A A150G
A26U C38U G42A C93U A97U
A26C C43U G48U C108U C116G A120U U134C
C27G U56G G94A A113C U135C
A28C A41C G46C A60C C132G
C27U A28U A73U G83C C85G C96A A115U C116A A119U A120U U139A A142U
A26U A41C G46A G80C G84U C93G U148A
A26U C27U U101A A121U G141C
A26U C27U G46U U53G C96U C149A
A24U G67C C93A A107G
C27G G59U A97U C114U
A26U C32G G62U A64G U82G C87G C96G U134A G141C
A26C C85U U102G C114A
A26U C85G C105A
C27U A30U A41G G67U C85A C95G
A26U G81C G84A U90G
A26G C51U G88A U127C A138U U148C
A28C A37U A91U A142G
G25A C131G U146C
C27U C93A C108G
G25U A39U G68C C69A C116G
G25C G48C G86U G143A
A24U C85U C108A
A26C G42U G80U G83U G100C C149U
C27G A30C C69U
A28C G42A U45G G88C C95U A142G U145A
A26C A28U C75U A91U C108G G133A G141C
C27G U53G C87G
G25A C35G A37U U55A A91U A142C U145A
A26C A39C A89C G94A G143U
C27U A30G A52U C114U C129G G133U A142U
G25U G92A G124U U135G A142G
G25U A49G A52G C87A G94A U104A A107G G126U
G25C A49G G50U G67C U102G U104G
C27G U45A A91C C93A G128A
C27A C85G G94U U102G U151A
A28C A47C C72U C87G G117U A138C A142U
A26C U55G G88A C93A A98U C118U U151A
A24U A40U C51U A66C G84A G141C
G25C A64C G83A U109G C114A G140A
G25A A26C C85A G133C
A26G C54G C57A A73U C85A C105A
C27U C87G C105G
A26G A66G G67A C75U A147C
A24U C54A A89U A91U C95G C132U U146G
A24U U31G G59C C87U C99G U102G
C27G U56G A64G G83A C93A G117U C125G
C27A C96G U101G U144G
C27U G58A A91U A106C A121U G128U G140U
C27U A39U C93U U135G G143C
A26C U31A G42C G46C G94A
A26G U44A U78C C99G G126A U134G
C27A G42C A52U A60U C116A U148C
G25U C96A A106U A122G C129G
C27A A49C U61A G68U C87A G152A
C27G U53A C79U G80C A106C G117A G128U
C27G U53G C96U
C27G C96G U111C
A26U A28U C36A U56A C85U
C27U C87G
A24U C32G U56A G92U U139A
A26U A49C A52G C69U C116A G152U
G25A C51G C95U U104A G124U C129U
A28C A39C C54G A73G G88A C93A
A24U U33G C57A C114U A119C U127A
A26G G50C C72A G84C A107U U111G G140A
A26G A66G A122C G136A G141U
A26U C75G A91G A110G U146G
A26U G70A G84A C87G A113C A120G
C27G C87U C105U C131A
A24U A39C U55C C75G G88A C95U A97C G117A U145G
C27G U44A C87U U101A
C27A U44A U102G A110U G140A U148A
C27G U55A C69U C93U
A26C A39G C93A U102G C118G U127A A137C G143C
C27G C87A U101A G140U
A26U G48C C93A
A28C U56C U61G C69A G70A C87G C114A C116U G143U
C27G U44A G86A
A26C A30G A52U U53A C93U A97G
A26G G50A C87U U101G A120U G141U
A26C G86C C118U C125U U139C G141U U144A
A26G C85A G117A G143A U145C
A26U C79U U102C C118U U144C
C27G G50C G58A G59A G92C
A26G C54U C63A C95U A110U C114G C131A
A24U A66G U104G C105U C118A C149A
A26C G34U A60G C93U C118A U130G A147U
C27A C36G U90A C96U U134A
C27G U55G U56A C95U U109G C125A U127C G136C
A24U C36U G59C U77A C87U
C27A C54U G70C G83U G117C C129G G140C
A26U C32U U33C A98G A119U
C27U A52G C93G U104A U111G
C27U U55A G58C G59A C87U C99G U134A G136U U145C
A26C A47G G50U G58A G59U C85A C132G
A24U G50A C95U C99A
A26C G83C A98G A138U
A26G A28C C36G C63U A91C C93A C118A
C27G A28G G50C A66G G70A G94C G112A
G25C U55C G86C A89G G126A A142U
A28C G83U C85G C116U G143U
A28C G50C G68A C132G
C27G A28U C38G G86A A97C A106G A137C A142C U145A
A26U A29C U56A G59C U61G
A28C C43U G59C G74A G86U C95U G117C
G25U G68U C103G C108G
A26G A64U C85G C95G A120U
A26C C38U A39C A49C C108U U134G

Source: the RNAGym collection of RNA variant scans (doi:10.1073/pnas.2313332121)
